# Assay results as given in ChEMBL document CHEMBL4888484, “Replenishing the malaria drug discovery pipeline: Screening and hit evaluation of the MMV Hit Generation Library 1 (HGL1) against asexual blood stage Plasmodium falciparum ,using a nano luciferase reporter read-out” (2022).
# Screen size: about 150,000 compounds; about 540 (0.36%) showed an effect of 50% or more. Some of the results follow.
# System: Plasmodium falciparum
# Test: Primary screen in NF54 nanoGlo assay, in single point, at 2uM, 72h; a lower Z score goes with more inhibition
# Type: functional, Erythrocyte
# Details: timepoint 72 hour
SMILES,% Inhibition [%],Z score
CCc1nnc(Cn2cc(-c3ccnc4ccccc34)nn2)s1,-2,0.29
CCCc1ncc(C(=O)N2CCCC2)s1,-10,1.32
Cn1c(=O)c(C(=O)NCC2CCN(Cc3cccc(F)c3)CC2)nn(-c2ccc(Cl)cc2)c1=O,-9,1.5
Cc1nc(C)c(CN2CCC2(C)C)s1,9,-1.68
CCNC(=O)[C@H](C)NS(=O)(=O)CCC1CCCCC1,15,-1.72
O=C(CNC(=O)Cc1ccccc1)NCCCCOc1ccc(Cl)cc1,-3,0.55
CCN1CCc2cc(OC)c(OC)cc2C1C(NC(=O)c1ccccc1C)C(C)C (centres undefined),-5,0.69
Cc1cc(CN2CC[C@H](N3CCCCC3)C2)on1,1,-0.07
Cc1coc(C)c1C(=O)NC1CCCC1,-9,1.16
CC(C)c1nnc2n1CCC1(CC2)CCN(C(=O)c2ccccc2)CC1,2,-0.16
CCCC(O)CN(Cc1ccccc1)CC1CC(c2ccc(Cl)cc2)=NO1 (centres undefined),-11,1.03
CCC(NC(=O)Nc1sc2c(c1C#N)CCCCC2)(C(F)(F)F)C(F)(F)F,3,-0.48
CCN(C(=O)c1cnn2ccccc12)[C@H]1CCS(=O)(=O)C1,10,-1.34
C[C@@H](c1nc(C(C)(C)C)no1)N(C)Cc1ccc(Br)o1,-8,1.33
C[C@H](NC(=O)c1ccc(O)nc1)c1cc2ccccc2o1,-2,0.25
O=C(C1CCOC1)N1CCCC(c2[nH]ncc2Cc2ccccc2)C1 (centres undefined),-13,1.63
Cc1cc(NC(=O)N(C)CCN(C)C2CCN(C)CC2)ccc1F,-6,0.66
Cc1cc(C(=O)N2CCC(n3cc(-c4ccccc4)nn3)CC2)c(=O)[nH]c1C,-11,1.2
CC(C)n1ncnc1CN[C@H](c1cccc2ccccc12)C(F)(F)F,9,-1.04
CCOC(=O)C1CCN(C(=NC)NCc2ccccc2)CC1,-17,1.5
CC(C)C[C@@H](CN(C)C)NS(=O)(=O)c1cnc2c(cnn2C)c1,-5,0.75

SMILES,% Inhibition [%],Z score
CC(C)[C@H]1CN(C(=O)c2cccn2C2CC2)C[C@@H]1C(=O)O,-1,0.22
C[C@H](NC(=O)CCc1ccncc1)c1cc2n(n1)CCCC2,2,-0.35
CS(=O)(=O)N1CCN(S(=O)(=O)N2CCN(c3ccccc3Cl)CC2)CC1,5,-0.74
Cc1cc(C)c2[nH]c(C)c(CC(=O)NC3(C(N)=O)CCCCCC3)c2c1,-3,0.45
Cc1cnn([C@@H](C)CNC(=O)c2cc(CN3CCC(O)CC3)on2)c1,-6,0.98
COc1ccc(CCCN2CC[C@H](C(N)=O)C2)cc1F,-8,0.74
Cc1cc(=O)[nH]c(CCN[C@@H](C)COc2ccccc2)n1,-2,0.33
Cc1noc2nc(C3CC3)cc(C(=O)NC3CCN(C4CC4)CC3)c12,-2,0.28
Cc1csc(CNC(=O)C(=O)Nc2ccc3c(c2)C(=O)N(C)C3=O)n1,35,-4.73
Cc1nnc(C(C)NC(=O)C2(C)CCCN(C(=O)c3ccccc3)C2)o1 (centres undefined),-7,0.99
COc1ccc(NC(=O)C(c2ccccc2)N2CCC(N3CCOCC3)C2)cc1Cl (centres undefined),-11,0.94
Cc1nc(N(C)C)nc(N[C@H]2CCNC2=O)c1C,11,-1.28
Cc1cc(-c2ccc(C)c(S(=O)(=O)N(CCN3CCOCC3)Cc3ccco3)c2)on1,6,-0.84
O=C(c1ccc2cc[nH]c2c1)N1CCO[C@H](C(F)(F)F)C1,8,-0.82
CC[C@H]1CN2C=NC(N3CCN(C(=O)Cc4ccccc4)CC3)=CC2=N1,56,-2.27
CC(C)NC(=O)c1cc(=O)c(OCc2ccccc2)c[nH]1,-5,1.03
Cc1nc(C)c(C(=O)N2CC[C@@H](O)[C@H]2c2ccc(Cl)cc2)o1,-12,1.3
Cc1n[nH]c(C)c1NC(=O)NCC1CC12CCc1ccccc12 (centres undefined),26,-2.91
C[C@H](NC(=O)Cn1nc(C2CC2)ccc1=O)C(N)=O,19,-2.49
O=C1NC[C@H]2O[C@H](CCOc3ccccc3C(=O)N3CCN(Cc4cccc(Cl)c4)C[C@@H]13)CC[C@@H]2O,0,-0.05
COc1ccc(Nc2nnc(-n3nc(C)cc3C)c3ccccc23)c(OC)c1,1,-0.26
